Results reported in paper PMC4623595 (Molecular cell, 2015).

Target: the molecule itself
Experiment: SEC-MALS

B1: Hsp104 lacking the NTD (Hsp104^ΔN) (domain or fragment)
chain: not shown
Which “stoichiometry N” value does the source give for B1 here?
The value was 6.
